Data published in the supplement of paper PMC8728848.
This is one part of the list.

Assays:
Assay in all cases: glycan array binding signal (z-score within array); higher = stronger binding
Conditions in all cases: glycan notation: IUPAC condensed, linker removed
Fuc(a1-2)Gal = target: Fuc(a1-2)Gal
Method in brief: (§1)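 Columns mapping to the same glycan were averaged after glycan names were converted to IUPAC-condensed notation. The data come from 3228 arrays in the Consortium for Functional Glycomics database, limited to those with an available protein sequence. Binding is reported as a within-array Z-score averaged across arrays of one protein sequence and across linkers.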

Fuc(a1-2)Gal(b1-3)GalNAc = target: Fuc(a1-2)Gal(b1-3)GalNAc
Method in brief: as §1

[1] = target: Fuc(a1-2)Gal(b1-3)GalNAc(b1-3)Gal
Method in brief: as §1

[2] = target: Fuc(a1-2)Gal(b1-3)GalNAc(b1-3)Gal(a1-4)Gal(b1-4)Glc
Method in brief: as §1

[3] = target: Fuc(a1-2)Gal(b1-3)GalNAc(b1-4)[Neu5Ac(a2-3)]Gal(b1-4)Glc
Method in brief: as §1

Fuc(a1-2)Gal(b1-3)GlcNAc = target: Fuc(a1-2)Gal(b1-3)GlcNAc
Method in brief: as §1

[4] = target: Fuc(a1-2)Gal(b1-3)GlcNAc(b1-2)Man(a1-3)[Fuc(a1-2)Gal(b1-3)GlcNAc(b1-2)Man(a1-6)]Man(b1-4)GlcNAc(b1-4)GlcNAc
Method in brief: as §1

[5] = target: Fuc(a1-2)Gal(b1-3)GlcNAc(b1-3)Gal(b1-4)Glc
Method in brief: as §1

[6] = target: Fuc(a1-2)Gal(b1-3)GlcNAc(b1-3)[Gal(b1-4)[Fuc(a1-3)]GlcNAc(b1-6)]Gal(b1-4)Glc
Method in brief: as §1

[7] = target: Fuc(a1-2)Gal(b1-3)[Fuc(a1-4)]GlcNAc
Method in brief: as §1

[8] = target: Fuc(a1-2)Gal(b1-3)[Fuc(a1-4)]GlcNAc(b1-2)Man(a1-3)[Fuc(a1-2)Gal(b1-3)[Fuc(a1-4)]GlcNAc(b1-2)Man(a1-6)]Man(b1-4)GlcNAc(b1-4)GlcNAc
Method in brief: as §1

Fuc(a1-2)Gal(b1-4)Glc = target: Fuc(a1-2)Gal(b1-4)Glc
Method in brief: as §1

Fuc(a1-2)Gal(b1-4)Glc6S = target: Fuc(a1-2)Gal(b1-4)Glc6S
Method in brief: as §1

Fuc(a1-2)Gal(b1-4)GlcNAc = target: Fuc(a1-2)Gal(b1-4)GlcNAc
Method in brief: as §1

[9] = target: Fuc(a1-2)Gal(b1-4)GlcNAc(b1-2)Man(a1-3)[Fuc(a1-2)Gal(b1-4)GlcNAc(b1-2)Man(a1-6)]Man(b1-4)GlcNAc(b1-4)GlcNAc
Method in brief: as §1

[10] = target: Fuc(a1-2)Gal(b1-4)GlcNAc(b1-3)Gal(b1-4)GlcNAc
Method in brief: as §1

[11] = target: Fuc(a1-2)Gal(b1-4)GlcNAc(b1-3)Gal(b1-4)GlcNAc(b1-3)Gal(b1-4)GlcNAc
Method in brief: as §1

[12] = target: Fuc(a1-2)Gal(b1-4)GlcNAc6S
Method in brief: as §1

[13] = target: Fuc(a1-2)Gal(b1-4)[Fuc(a1-3)]GlcNAc
Method in brief: as §1

[14] = target: Fuc(a1-2)Gal(b1-4)[Fuc(a1-3)]GlcNAc(b1-2)Man(a1-3)[Fuc(a1-2)Gal(b1-4)[Fuc(a1-3)]GlcNAc(b1-2)Man(a1-6)]Man(b1-4)GlcNAc(b1-4)GlcNAc
Method in brief: as §1

[15] = target: Fuc(a1-2)Gal(b1-4)[Fuc(a1-3)]GlcNAc(b1-3)Gal(b1-4)[Fuc(a1-3)]GlcNAc
Method in brief: as §1

[16] = target: Fuc(a1-2)Gal(b1-4)[Fuc(a1-3)]GlcNAc(b1-3)Gal(b1-4)[Fuc(a1-3)]GlcNAc(b1-3)Gal(b1-4)[Fuc(a1-3)]GlcNAc
Method in brief: as §1

Fuc(a1-2)Gal6S(b1-4)Glc = target: Fuc(a1-2)Gal6S(b1-4)Glc
Method in brief: as §1

[17] = target: Fuc(a1-2)Gal6S(b1-4)Glc6S
Method in brief: as §1

[18] = target: Fuc(a1-2)Gal6S(b1-4)GlcNAc
Method in brief: as §1

Fuc(a1-2)[Gal(a1-3)]Gal = target: Fuc(a1-2)[Gal(a1-3)]Gal
Method in brief: as §1

[19] = target: Fuc(a1-2)[Gal(a1-3)]Gal(b1-3)GlcNAc
Method in brief: as §1

[20] = target: Fuc(a1-2)[Gal(a1-3)]Gal(b1-3)GlcNAc(b1-2)Man(a1-3)[Fuc(a1-2)[Gal(a1-3)]Gal(b1-3)GlcNAc(b1-2)Man(a1-6)]Man(b1-4)GlcNAc(b1-4)GlcNAc
Method in brief: as §1

[21] = target: Fuc(a1-2)[Gal(a1-3)]Gal(b1-4)Glc
Method in brief: as §1

[22] = target: Fuc(a1-2)[Gal(a1-3)]Gal(b1-4)GlcNAc
Method in brief: as §1

[23] = target: Fuc(a1-2)[Gal(a1-3)]Gal(b1-4)GlcNAc(b1-2)Man(a1-3)[Fuc(a1-2)[Gal(a1-3)]Gal(b1-4)GlcNAc(b1-2)Man(a1-6)]Man(b1-4)GlcNAc(b1-4)GlcNAc
Method in brief: as §1

[24] = target: Fuc(a1-2)[Gal(a1-3)]Gal(b1-4)[Fuc(a1-3)]GlcNAc
Method in brief: as §1

[25] = target: Fuc(a1-2)[Gal(a1-4)]Gal(b1-4)GlcNAc
Method in brief: as §1

[26] = target: Fuc(a1-2)[GalNAc(a1-3)]Gal
Method in brief: as §1

[27] = target: Fuc(a1-2)[GalNAc(a1-3)]Gal(b1-3)GlcNAc
Method in brief: as §1

[28] = target: Fuc(a1-2)[GalNAc(a1-3)]Gal(b1-3)GlcNAc(b1-2)Man(a1-3)[Fuc(a1-2)[GalNAc(a1-3)]Gal(b1-3)GlcNAc(b1-2)Man(a1-6)]Man(b1-4)GlcNAc(b1-4)GlcNAc
Method in brief: as §1

[29] = target: Fuc(a1-2)[GalNAc(a1-3)]Gal(b1-4)Glc
Method in brief: as §1

[30] = target: Fuc(a1-2)[GalNAc(a1-3)]Gal(b1-4)GlcNAc
Method in brief: as §1

[31] = target: Fuc(a1-2)[GalNAc(a1-3)]Gal(b1-4)GlcNAc(b1-2)Man(a1-3)[GalNAc(a1-3)[Fuc(a1-2)]Gal(b1-4)GlcNAc(b1-2)Man(a1-6)]Man(b1-4)GlcNAc(b1-4)GlcNAc
Method in brief: as §1

[32] = target: Fuc(a1-2)[GalNAc(a1-3)]Gal(b1-4)GlcNAc(b1-3)Gal(b1-4)GlcNAc
Method in brief: as §1

[33] = target: Fuc(a1-2)[GalNAc(a1-3)]Gal(b1-4)GlcNAc(b1-3)Gal(b1-4)GlcNAc(b1-3)Gal(b1-4)GlcNAc
Method in brief: as §1

[34] = target: Fuc(a1-2)[GalNAc(a1-3)]Gal(b1-4)[Fuc(a1-3)]GlcNAc
Method in brief: as §1

[35] = target: Fuc(a1-2)[GalNAc(a1-4)]Gal(b1-4)GlcNAc
Method in brief: as §1

[36] = target: Fuc(a1-2)[GalNAc(b1-3)]Gal
Method in brief: as §1

Fuc(a1-3)GlcNAc = target: Fuc(a1-3)GlcNAc
Method in brief: as §1

[37] = target: Fuc(a1-3)[Gal(b1-4)]Glc6S
Method in brief: as §1

[38] = target: Fuc(a1-3)[Gal(b1-4)]GlcNAc
Method in brief: as §1

[39] = target: Fuc(a1-3)[Gal(b1-4)]GlcNAc(b1-2)Man(a1-3)[Fuc(a1-3)[Gal(b1-4)]GlcNAc(b1-2)Man(a1-6)]Man(b1-4)GlcNAc(b1-4)GlcNAc
Method in brief: as §1

[40] = target: Fuc(a1-3)[Gal(b1-4)]GlcNAc(b1-2)Man(a1-6)[Gal(b1-4)GlcNAc(b1-2)Man(a1-3)]Man(b1-4)GlcNAc(b1-4)GlcNAc
Method in brief: as §1

[41] = target: Fuc(a1-3)[Gal(b1-4)]GlcNAc(b1-3)Gal(b1-3)[Fuc(a1-4)]GlcNAc
Method in brief: as §1

[42] = target: Fuc(a1-3)[Gal(b1-4)]GlcNAc(b1-4)Gal(b1-4)[Fuc(a1-3)]GlcNAc
Method in brief: as §1

[43] = target: Fuc(a1-3)[Gal(b1-4)]GlcNAc(b1-4)Gal(b1-4)[Fuc(a1-3)]GlcNAc(b1-4)Gal(b1-4)[Fuc(a1-3)]GlcNAc
Method in brief: as §1

[44] = target: Fuc(a1-3)[Gal(b1-4)]GlcNAc6S
Method in brief: as §1

[45] = target: Fuc(a1-3)[Gal3S(b1-4)]Glc6S
Method in brief: as §1

[46] = target: Fuc(a1-3)[Gal3S(b1-4)]GlcNAc
Method in brief: as §1

[47] = target: Fuc(a1-3)[Gal3S(b1-4)]GlcNAc6S
Method in brief: as §1

[48] = target: Fuc(a1-3)[GalNAc(b1-4)]GlcNAc
Method in brief: as §1

[49] = target: Fuc(a1-3)[Neu5Ac(a2-3)]Gal(b1-4)GlcNAc(b1-3)GalNAc
Method in brief: as §1

Fuc(a1-4)GlcNAc = target: Fuc(a1-4)GlcNAc
Method in brief: as §1

Fuc(b1-3)GlcNAc = target: Fuc(b1-3)GlcNAc
Method in brief: as §1

B1: GALT1 615 (Arabidopsis thaliana), Q8L7F9 (protein)
chain: DPMRGSHHHHHHGMASMTGGQQMGRDLYDDDDKSRLQKPYITAAASVVVTPNTTLPMEWLRITLPDFMKEARNTQEAISGDDIAVVSGLFVEQNVSKEEREPLLTWNRLESLVDNAQSLVNGVDAIKEAGIVWESLVSAVEAKKLVDVNENQTRKGKEELCPQFLSKMNATEADGSSLKLQIPCGLTQGSSITVIGIPDGLVGSFRIDLTGQPLPGEPDPPIIVHYNVRLLGDKSTEDPVIVQNSWTASQDWGAEERCPKFDPDMNKKVDDLDECNKMVGGEINRTSSTSLQSNTSRGVPVAREASKHEKYFPFKQGFLSVATLRVGTEGMQMTVDGKHITSFAFRDTLEPWLVSEIRITGDFRLISILA
glycan array binding signal (z-score) (Fuc(a1-2)Gal): -0.175
glycan array binding signal (z-score) (Fuc(a1-2)Gal(b1-3)GalNAc): 0.1
glycan array binding signal (z-score) [1]: 8.63
glycan array binding signal (z-score) [2]: -0.235
glycan array binding signal (z-score) [3]: -0.445
glycan array binding signal (z-score) (Fuc(a1-2)Gal(b1-3)GlcNAc): 0.807
glycan array binding signal (z-score) [4]: -0.319
glycan array binding signal (z-score) [5]: -0.17
glycan array binding signal (z-score) [6]: -0.284
glycan array binding signal (z-score) [7]: -0.251
glycan array binding signal (z-score) [8]: 0.828
glycan array binding signal (z-score) (Fuc(a1-2)Gal(b1-4)Glc): -0.302
glycan array binding signal (z-score) (Fuc(a1-2)Gal(b1-4)Glc6S): -0.165
glycan array binding signal (z-score) (Fuc(a1-2)Gal(b1-4)GlcNAc): -0.374
glycan array binding signal (z-score) [9]: -0.089
glycan array binding signal (z-score) [10]: -0.214
glycan array binding signal (z-score) [11]: -0.441
glycan array binding signal (z-score) [12]: -0.367
glycan array binding signal (z-score) [13]: 4.77
glycan array binding signal (z-score) [14]: 0.697
glycan array binding signal (z-score) [15]: 0.745
glycan array binding signal (z-score) [16]: 1.95
glycan array binding signal (z-score) (Fuc(a1-2)Gal6S(b1-4)Glc): 1.86
glycan array binding signal (z-score) [17]: -0.053
glycan array binding signal (z-score) [18]: -0.321
glycan array binding signal (z-score) (Fuc(a1-2)[Gal(a1-3)]Gal): 0.233
glycan array binding signal (z-score) [19]: -0.245
glycan array binding signal (z-score) [20]: -0.179
glycan array binding signal (z-score) [21]: -0.086
glycan array binding signal (z-score) [22]: -0.336
glycan array binding signal (z-score) [23]: -0.253
glycan array binding signal (z-score) [24]: -0.041
glycan array binding signal (z-score) [25]: -0.333
glycan array binding signal (z-score) [26]: -0.453
glycan array binding signal (z-score) [27]: 1.44
glycan array binding signal (z-score) [28]: -0.131
glycan array binding signal (z-score) [29]: -0.391
glycan array binding signal (z-score) [30]: -0.498
glycan array binding signal (z-score) [31]: -0.299
glycan array binding signal (z-score) [32]: -0.268
glycan array binding signal (z-score) [33]: 1.05
glycan array binding signal (z-score) [34]: 1.82
glycan array binding signal (z-score) [35]: -0.082
glycan array binding signal (z-score) [36]: 0.037
glycan array binding signal (z-score) (Fuc(a1-3)GlcNAc): -0.157
glycan array binding signal (z-score) [37]: -0.255
glycan array binding signal (z-score) [38]: 0.124
glycan array binding signal (z-score) [39]: -0.143
glycan array binding signal (z-score) [40]: -0.094
glycan array binding signal (z-score) [41]: -0.081
glycan array binding signal (z-score) [42]: -0.264
glycan array binding signal (z-score) [43]: -0.386
glycan array binding signal (z-score) [44]: 0.289
glycan array binding signal (z-score) [45]: -0.547
glycan array binding signal (z-score) [46]: 1.02
glycan array binding signal (z-score) [47]: -0.483
glycan array binding signal (z-score) [48]: -0.421
glycan array binding signal (z-score) [49]: 0.079
glycan array binding signal (z-score) (Fuc(a1-4)GlcNAc): -0.287
glycan array binding signal (z-score) (Fuc(b1-3)GlcNAc): -0.443
